This is an account of results in PMC11995724, “Antibiotic target discovery by integrated phenotypic and activity-based profiling of electrophilic fragments” (Cell chemical biology, 2025).

Each structure is given as a SMILES string. Among all 3,200 compounds or so, about 110 (3.4%) showed an effect of 50% or more. The list shows a part of the results.

The experiment relates to T1, V. cholerae SAD30.
T1 construct: SAD30
Set-up: species or system S. aureus MSSA476 (TSB) or V. cholerae SAD30 (LB); 384-well bacterial growth screen at 25 uM, OD600 relative to DMSO control. The conditions noted are these: relative growth, OD600, LB; 25 µM; inhibitor.
Turning to `CC(Cl)C(=O)N1CCOCC(n2cccn2)C1` (stereo not shown) [6-H22, 2-chloro-1-[6-(1H-pyrazol-1-yl)-1,4-oxazepan-4-yl]propan-1-one], the “% of control remaining” value is reported as 103.896%.
The same measure for `C=CC(=O)N(C)Cc1cn(C2CC2)cn1` [2-J13, N-[(1-cyclopropyl-1H-imidazol-4-yl)methyl]-N-methylprop-2-enamide]: 90.8135%; for `C=CC(=O)Nc1ccc(C(=O)N2CCCCC2c2noc(C)n2)cc1` (stereo not shown) [2-C20, N-{4-[2-(5-methyl-1,2,4-oxadiazol-3-yl)piperidine-1-carbonyl]phenyl}prop-2-enamide]: 98.2245%; for `CC(C)OC(=O)c1ccc(NC(=O)C(C)Cl)cc1` (stereo not shown) [4-K08, propan-2-yl 4-(2-chloropropanamido)benzoate]: 78.499%.
The same measure for `C=CC(=O)NCC1CS(=O)(=O)c2ccccc21` (stereo not shown) [3-J15, N-[(1,1-dioxo-2,3-dihydro-1lambda6-benzothiophen-3-yl)methyl]prop-2-enamide]: 89.9724%; for `CCN(c1ccc(C(=O)CCl)cc1)S(C)(=O)=O` [10-F04, N-[4-(2-chloroacetyl)phenyl]-N-ethylmethanesulfonamide]: 100.994%; for `Cc1cc(C(=O)O)ccc1N1C(=O)C=CC1=O` [10-G22, 4-(2,5-dioxo-2,5-dihydro-1H-pyrrol-1-yl)-3-methylbenzoic acid]: 102.864%.
With `CC(=O)Nc1ccsc1C=C(C#N)C(=O)Nc1ccc(F)cc1` [9-F14, 2-cyano-3-(3-acetamidothiophen-2-yl)-N-(4-fluorophenyl)prop-2-enamide], the “% of control remaining” value was determined as 86.9477%.
The same measure for `Cc1ccc(C)c(NC(=O)C(C#N)=Cc2cccn2C)c1` [8-M07, 2-cyano-N-(2,5-dimethylphenyl)-3-(1-methyl-1H-pyrrol-2-yl)prop-2-enamide]: 71.0401%.
With `C=CC(=O)N1CCC(C(=O)NCc2ccc(S(N)(=O)=O)cc2)CC1` [3-N10, 1-(prop-2-enoyl)-N-[(4-sulfamoylphenyl)methyl]piperidine-4-carboxamide] the figure was 97.9121%; with `CC(Cl)C(=O)NCCc1ccc[nH]1` (stereo not shown) [7-L09, 2-chloro-N-[2-(1H-pyrrol-2-yl)ethyl]propanamide], 83.2645%; with `CC(Cl)C(=O)NCCN1CCn2nccc2C1` (stereo not shown) [5-D13, 2-chloro-N-(2-{4H,5H,6H,7H-pyrazolo[1,5-a]pyrazin-5-yl}ethyl)propanamide], 95.6604%.
With `Cc1ccccc1NC(=O)C(C#N)=Cc1c(Cl)nc2ccccn12` [9-I22, 3-{2-chloroimidazo[1,2-a]pyridin-3-yl}-2-cyano-N-(2-methylphenyl)prop-2-enamide], the “% of control remaining” value was 95.5133%.
With `C=CC(=O)N1CCOCC1CC(=O)c1ccco1` (stereo not shown) [2-M17, 1-{3-[2-(furan-2-yl)-2-oxoethyl]morpholin-4-yl}prop-2-en-1-one] the figure was 90.8135%.
Take `NC(=O)c1cc(-c2ccccc2)sc1NC(=O)CCl` [6-M14, 2-(2-chloroacetamido)-5-phenylthiophene-3-carboxamide]: the “% of control remaining” value was 89.9422%.
With `O=C(CCl)NC1CCSc2ccc(F)cc21` (stereo not shown) [5-M09, 2-chloro-N-(6-fluoro-3,4-dihydro-2H-1-benzothiopyran-4-yl)acetamide], the “% of control remaining” value is on record as 100.872%.
The same measure for `C=CC(=O)NCc1nc(C(=O)O)c(C)s1` [1-K03, 5-methyl-2-[(prop-2-enamido)methyl]-1,3-thiazole-4-carboxylic acid]: 101.495%.
With `N#CC(=Cc1ccc(N)cc1)C(=O)N1CCCC1` [9-E14, 3-(4-aminophenyl)-2-(pyrrolidine-1-carbonyl)prop-2-enenitrile] the figure was 85.1801%.
With `O=C(CCl)NCc1ccccc1OC1CCCC1` [6-C14, 2-chloro-N-{[2-(cyclopentyloxy)phenyl]methyl}acetamide], the “% of control remaining” value was 88.5771%.
With `COCc1nnc([C@]23CC[C@H]2CCN3C(=O)C(C)Cl)o1` (mixture of isomers) [5-H15, rac-2-chloro-1-[(1R,5R)-1-[5-(methoxymethyl)-1,3,4-oxadiazol-2-yl]-2-azabicyclo[3.2.0]heptan-2-yl]propan-1-one] the figure was 96.501%; with `CC(C)NC(=O)C(C#N)=Cc1ccc(Cl)c(Cl)c1` [9-M07, 2-cyano-3-(3,4-dichlorophenyl)-N-(propan-2-yl)prop-2-enamide], 83.0048%; with `CCC(=O)Nc1ccc(C(=O)CCl)cc1` [10-C03, N-[4-(2-chloroacetyl)phenyl]propanamide], 111.903%.
For `CC(Cl)C(=O)NC[C@H]1CCCN(C2CC2)[C@@H]1c1ccnn1C` (mixture of isomers) [6-P20, rac-2-chloro-N-{[(2R,3S)-1-cyclopropyl-2-(1-methyl-1H-pyrazol-5-yl)piperidin-3-yl]methyl}propanamide], the “% of control remaining” value came to 98.7392%.
With `C=CC(=O)N1CCn2c(cnc2C(F)(F)F)C1` [3-B16, 1-[3-(trifluoromethyl)-5H,6H,7H,8H-imidazo[1,5-a]pyrazin-7-yl]prop-2-en-1-one] the figure was 108.322%; with `CC(C)NC(=O)C(C#N)=Cc1ccc(-c2ccccc2F)o1` [8-K18, 2-cyano-3-[5-(2-fluorophenyl)furan-2-yl]-N-(propan-2-yl)prop-2-enamide], 53.7729%.
With `Cn1ccc(NC(=O)C(C#N)=Cc2ncccc2C(F)(F)F)n1` [8-F17, 2-cyano-N-(1-methyl-1H-pyrazol-3-yl)-3-[3-(trifluoromethyl)pyridin-2-yl]prop-2-enamide] the figure was 68.7288%; with `N#CC(=Cc1ccc(Cl)cc1)C(N)=O` [8-L21, 3-(4-chlorophenyl)-2-cyanoprop-2-enamide], 77.9742%.
As for `C=CC(=O)N1CCC(C(=O)N2CCC(CC(N)=O)C2)CC1` (stereo not shown) [2-J14, 2-{1-[1-(prop-2-enoyl)piperidine-4-carbonyl]pyrrolidin-3-yl}acetamide], the “% of control remaining” value turned out to be 89.8871%.
